Test results: the RNAGym collection of RNA variant scans (doi:10.7554/elife.90254)
The source gives no read counts; variants with many changes may rest on few reads.

B1: LINE1-mini (parent)
chain: GGCAGAGCUCAACACAGCGUGGCAAAGUGGCUGUGGCUAGACUGCC

Variants of: B1
Assay: self-cleavage, relative activity (ratio to wild type); higher = more cleavage; in vitro, sequencing; the parent is a self-cleaving ribozyme

Variant | self-cleavage
C15A G17C A41U | 0.04
C15A C23A G30U C37U C46A | 0.56
A14U G29C A41U | 0.11
C15A G19A U32C | 0.11
C15A A16C G22A | 0.05
A14C A24G C45U | 0.03
C13U G35A G36A A41G | 0.13
A14U U28G G30A U34G | 0.17
A14U A25C C31A | 0.02
A14G A24G G33U | 0.02
A14G G17C U20G | 0.03
A14U A24U C45G | 0.15
A14U G27U C37U A39G | 0
A14G G36A G40A | 0.09
A14C G21U C37A A41U | 0.03
C15A G22A A25U A41C | 0.04
A14U G21C G22C | 0.03
C15A A24U U28G G29U C46G | 0.07
C15A U34A C42A | 0.03
A14C C15A G30C C46G | 0.02
C15A G17U U43C | 0.01
A14C U38C C42G | 0.19
A14U C15G C23U C46G | 0.03
A14U U20A G35C | 0.02

Variant | self-cleavage
A14U G22U A25G | 0
A14G C15A G21U C23G C42A | 0.09
C15A G30A U43C | 0.11
C15A G30U G44A | 0.07
A14C C15A G40C | 0.01
A14C U32G U38A G44U | 0.03
C13U G35C U43A C45U | 0.04
C15A C18U G33C U34A A41C | 0.01
C13U U28G G40C | 0.03
A14G G27A G35A U38A G40A | 0.1
A14U A16C U32C A39U A41U | 0.02
C15G A16G C23U | 0.03
C15A A24C U43C | 0
A14G G17U U43A G44C | 0.07
A14C G27C U28A G29C U43G | 0
C15A G21C G22U A25U G35C | 0.03
A14U G22A G27U C37G C42A | 0.07
C15G A16C U28A U34C C37U | 0
C15A C23G G27C A41U | 0.05
C15A C18U G44U | 0.13
A14G G33A G35C | 0.05
C15A A25C U28A | 0.04
C15A G30C G33C G44A | 0.02
A14U U20A G29C G44U | 0.33

Variant | self-cleavage
A14U C15G U34A | 0.03
A14C C31G U32A G36U | 0.04
A14G G17A C31A G40A | 0
A14G A16U G17U C18G A39U | 0.06
A14C A16C G19C U32C | 0.15
C15A C18U U38A | 0.12
A14C A26G G29U U32G | 0.02
A14G A25G G44U | 0.04
C13U G36U C37G C46A | 0.27
A14U A26C A41C | 0.02
A14U A24U G29U C31A C45G | 0.04
C13U U20C U34A C37A | 0.05
A14C G21A G22C A24C | 0.03
A14G G19C A39U C45A | 0.44
A14U G33C G44U | 0.05
A14C G27C C42U | 0.16
C15A G29C C45G | 0.04
C13U G36C G40A | 0.03
C15A A25C U28A G29C G30U C37G C46G | 0.01
A14G C23A C45G | 0.33
C15A G22C A41C | 0.03
C15A G21U U28A | 0.04
A14U G19A A25U | 0.18
A14U G17A A26U | 0.03

Variant | self-cleavage
A14G A25U G30U | 0.53
C13U U20G U28C G44U | 0.09
C15A G33U U34G | 0.02
A14G A16C G22A | 0.02
C15A C18G U32C U34A | 0.01
A14C G21C C31A C37G | 0.01
C15A G30A C37G | 0.03
C15A G17U C23U G27U G36A C46G | 0.01
C15A G30U C31A G33U C37G G44U | 0.04
C15A U20G C37U | 0.01
C15A C31G C45A C46A | 0.02
A14G C31G G36A | 0.06
A14U G17U A39U G40U | 0.16
C15A U34G C42U | 0.04
C15A C23A C45U C46U | 0.48
A14C G33C C37U | 0.03
A14G C15A G36U | 0.01
C13U U32A G35U C37U | 0.26
A14U C18U G19C | 0.65
C15A G29C U43C C46G | 0.04
A14U U38G A39U | 0.08
C15A A16U C46A | 0
C13U U20A U28G C46A | 0.06
A14G C15G A25G | 0

Variant | self-cleavage
C15A A25U U32A A39C | 0.04
C13U U38G C46A | 0.03
C13U U28C U32G | 0.01
A14C C23U U43A | 0.04
C15A G21C C46U | 0.18
A14G C23A G30A U43A | 0.05
A14G G21C G29C | 0.11
A14C G30C C37U | 0.17
A14G G21C C37U A41G | 0.03
A14U G19U U32C A39G | 0.09
A14U C15G G27C G33U | 0.04
C15A G21C A25G G35C G40C | 0.02
A14U G22A C23G U34A | 0.31
A14U G27U G30A C42A | 0.05
A14C C18U A24C G36C | 0
A14U A16G C31U C37A | 0.01
C15A G17A U34C | 0
C15A G19C G22A A39G A41C | 0.01
A14G C18U G19U C46A | 0.19
A14G G22U C23A G27U U43A C46A | 0.13
C15A G21U A24C G40C | 0.02
A14C G35A G44U | 0.12
A14U A26C G40A | 0.01
A14U C15G G27C | 0.04

Variant | self-cleavage
A14G U32C A41U | 0.38
C15A G33C A41U C46G | 0.04
C15A A25U C46U | 0.06
C13U U20A A39G | 0.05
C15G A16C A24G U34A C37A U38A | 0.01
A14G A16C C23A C31U | 0.01
A14U G17U U32G G33A C42A | 0.1
A14U C23U G27A A39U | 0.61
C15A G17A C18A A25C U32G G35A G36A | 0.02
A14U U28A A41U | 0.03
A14U C37A U38C | 0.18
A14C A16C G21U | 0
A14U A41U C45U | 0.12
A14G G17A G40U | 0.18
A14C A25G G35A | 0.04
A14C G27C U28C A41U | 0.03
A14G U38G C45A | 0.05
A14G G17A G33A | 0.02
A14G G19A U28C | 0.34
A14C U20G A24G C31A | 0
A14U G29A C42A | 0.03
A14C C23G A39C | 0.07
A14U G19C U28A G36A | 0
A14U A24U G30C | 0.1

Variant | self-cleavage
C15A G22U A25U | 0.03
C13U G36A G40U C42A | 0.03
C15A G29C U34C | 0.02
A14C G22U A39C | 0.08
A14U C15A G19U | 0.08
C15A U32C A41C C46G | 0.04
A14C C18A A41G | 0.05
A14U G22U A26U | 0.54
C15A G19C U20G G30C G33U | 0.03
C15A G17C A25U C37U | 0.15
A14U C15A U38A G44U | 0.06
C15A G22A G35A | 0.05
A14C G22A C23U A24G | 0.12
C15A U20C G21A | 0.07
A14G U20A A26U | 0.67
C15A G21C C31A G36C C45A | 0.15
C15A G35A G36U C37A | 0.06
C15A G21A A26U G27U | 0.09
A14C C18U C23U C42U | 0.05
A14U C15A U20A C23U | 0.09
A14C C15A C18A G22A C31G G33C | 0.04
C15A U20C C23G G35U | 0
A14C U43G C46U | 0.02
